Data from article PMC12136788.
Some of the results follow.

T1: UNK ZnF1-3 (human, UniProt Q9C0B0 31-174)
T1 sequence: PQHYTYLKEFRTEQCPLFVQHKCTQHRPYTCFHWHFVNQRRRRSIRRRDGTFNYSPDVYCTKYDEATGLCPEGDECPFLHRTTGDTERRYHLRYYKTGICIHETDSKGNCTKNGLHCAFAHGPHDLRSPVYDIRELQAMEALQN

B1: 90437560_90438655_5519_CDS_ENSG00000112159_ENST00000369393|human|control|control (ssRNA)
RNA: GGGAGUUCUACAGUCCGACGAUCCACCACCCAAUGGCCUGCCUUCAAAGCUGCCAGUAAGGGGCCAUCACGCCAGGCAAACUCUCCUCCCUUGCCACCUUCAACAGGUAGAUCUGCUCCAAACAGGUCUGUGAUGUCCGUUUGCAACAGAGGAUUGAGCAUCA
B2: chr14:52780626:52780627:-_ENSMUSG00000035726_ENSMUST00000046709|mus_hu|FALSE|FALSE (ssRNA)
RNA: GGGAGUUCUACAGUCCGACGAUCAGACAGUGGCAAUUUUGCCUUCUAUCAUUGUACCAUGUGUGCAUUGUAUGGAGAAAAUAACCGAGCCAGGGAGUAUCACUGCUUCUUAUGUCUUCCAAGGCAGCAGAUAUACCUCAGAAUCAACAGAGGAUUGAGCAUCA
B3: chr5:179045309:179045310:-_ENSG00000169045_ENST00000393432|hu_mus|FALSE|FALSE (ssRNA)
RNA: GGGAGUUCUACAGUCCGACGAUCAUAAUGAGUUCUAACUUCAGCUCGACUGCUCUUAAAUAUUUCAAUAUACCUGUGCCCUAUUCUUUCCUUGUGUUUCUUUAGAGCCUUUUCAGCUAUUUCCUGUGAAGCAAACUGCACGAACAACAGAGGAUUGAGCAUCA
B4: chrX:71549762:71549763:+_ENSMUSG00000019087_ENSMUST00000019231|mus_mus|mus_mus_mus_hu_False|18_58 (ssRNA)
RNA: GGGAGUUCUACAGUCCGACGAUCAAACCCGUGUACUUCUUAUUGUUAGCACAACAUCACCAGAAAACGAUAACGACAGCUAAGCUGGACAGACAGUUAAGUAGUACUUCCACACUCCGCAAAUUCAGGAGCCCUAUAACCUUACAACAGAGGAUUGAGCAUCA
B5: chrX:71549400:71549401:+_ENSMUSG00000019087_ENSMUST00000019231|mus_hu|mus_mus_mus_hu_False|68_88 (ssRNA)
RNA: GGGAGUUCUACAGUCCGACGAUCGCAGUAGGAAGAGGGAAGCUCUUCAUCCACUGUCGCUGCAGGGAGAAACAUGAACAACACGGACACCGUCCCACCCUCAACCCCCCCACUGGCACAGGGUCACACAAUCUGGGUCAAAGACAACAGAGGAUUGAGCAUCA
B6: 127009584_127009886_5678_CDS_ENSMUSG00000040249_ENSMUST00000049149|mouse|control|control (ssRNA)
RNA: GGGAGUUCUACAGUCCGACGAUCCCAGUAGAGUUUGCUCUCAGGGAAGUCAAUGGCCAACCCCACAGGGCCCUUCUGGCCACUGAAGAGCAGAGUGUGGUUGCUCCCAUCCAUGUUGGCCAUGCUGAUGUUGUCCCCAUCAGUCAACAGAGGAUUGAGCAUCA
B7: 15136406_15136526_5181_CDS_ENSMUSG00000046111_ENSMUST00000161132|mouse|control|control (ssRNA)
RNA: GGGAGUUCUACAGUCCGACGAUCAGUCUCUCUGUGUCUUUGGAUUUGCUGCUGUAAGGAUGUCUGUCUCUGCACAAGCAAUUCUUCUUGGGCUUUUUGCCUAGAGUGUAGAGUUUCUCUUUGUAGAUUCAGCUGCUUCUGAAGCAACAGAGGAUUGAGCAUCA
B8: 44621135_44621403_292_3pUTR_ENSG00000158604_ENST00000457408|human|control|control (ssRNA)
RNA: GGGAGUUCUACAGUCCGACGAUCAAGCGGCCCUCCGAGCCGUACUGCCGGGACAGCACCACCUUGCCGUCGGGGUCCUUCACUUCCACGUGCAUGCCCAGGCCAGGGGUCGAGGGCAGGAAGACCUCCUUCUGCUUAUCCCACCAACAGAGGAUUGAGCAUCA
B9: chr9:110451855:110451856:+_ENSMUSG00000044791_ENSMUST00000153838|mus_hu|FALSE|FALSE (ssRNA)
RNA: GGGAGUUCUACAGUCCGACGAUCAACUGGCAUAGACAUGAGUUUAUCUUGGUGUGGUGACACCAGAGGUUCUGUUUCUCUAAAUGGGCUUUCUGACUUCUUAUGCAGCAUGCAGGUAUCAUCCAAGUCUUUUUCUUUGCACCUCAACAGAGGAUUGAGCAUCA
B10: chrX:140365796:140365797:-_ENSMUSG00000031285_ENSMUST00000033642|mus_mus|mus_mus_mus_hu_False|28_58 (ssRNA)
RNA: GGGAGUUCUACAGUCCGACGAUCCUUCUCAUUACUCAGUGCCUGCAAGGUUCUGGUUCGGUAGAAGCUACAGUGGGCACUAUGAGUGGGGCUAGGCAACCCAUUCAUCCGUGACCCUCGCAUGUUCCUGGAUGUCUUAUCUCUCAACAGAGGAUUGAGCAUCA
B11: chr2:232597714:232597715:-_ENSG00000156973_ENST00000287600|hu_hu|FALSE|FALSE (ssRNA)
RNA: GGGAGUUCUACAGUCCGACGAUCGAAAAGUCUCACUCUGGAUGUGCUUACAAGAAGAUCGUCGUCAAAAAACUUUGUUUCUAUGAUAACGUUCCCAGUUAAGACGCUUGCUGGCAUCAUCUGGGACUCGGGUGCUGCCUCUAUCAACAGAGGAUUGAGCAUCA
B12: 71035246_71035366_2326_3pUTR_ENSMUSG00000052040_ENSMUST00000063694|mouse|control|control (ssRNA)
RNA: GGGAGUUCUACAGUCCGACGAUCGGCAGAAGCAGGACAGAAGAGUGGGUAAUGCAACAGUGUGGAACUGUGGGUCUGCUAAGUCUGUACCCAAGGUUCUGAGAAAGUCAUUCCCACAAUUUUCAUCCGGUGUCCCCCAGAGCACAACAGAGGAUUGAGCAUCA
B13: chr22:38884116:38884117:-_ENSG00000100201_ENST00000396821|hu_hu|FALSE|FALSE (ssRNA)
RNA: GGGAGUUCUACAGUCCGACGAUCAUAAUCCUCUGAGCUGUUUGGAUAGUCAUAGUUGAUCACAAACUUGACAUCUUCCACAUCUAGCCCACGGGAGGCUACAUCUGUAGCAAUAAGGAUGGGUGCCUUUCCAGAACGGAACUCCAACAGAGGAUUGAGCAUCA
B14: chr2:198351390:198351391:-_ENSG00000144381_ENST00000345042|hu_hu|hu_hu_hu_mus_False|28_58 (ssRNA)
RNA: GGGAGUUCUACAGUCCGACGAUCUCAUUCCCACCCUCCACAGAAAGGCUGCUUCUGAACUCUCAUGUGGUGACACAGCACUAAAAUCCUGAUGCUCACAGAACAGUAGUAAAAAUGCAGUGAUUUAAGUUGAAAGCAGGACACCAACAGAGGAUUGAGCAUCA
B15: chr3:176740097:176740098:-_ENSG00000177565_ENST00000430069|hu_mus|hu_hu_hu_mus_True|78_108 (ssRNA)
RNA: GGGAGUUCUACAGUCCGACGAUCUGUUUUUUACACCACAAAAGGAGGCACUUUCAGUAUCUGUAAAAGGUGUUUAGUCCUAAAACAUACUCACCUAGAGGAUAACUCAGGAAAACAAUCUGUUACACUCUAAGACCUACUCCACAACAGAGGAUUGAGCAUCA
B16: chr4:57314706:57314707:+_ENSG00000128050_ENST00000264221|hu_mus|hu_hu_hu_mus_True|18_18 (ssRNA)
RNA: GGGAGUUCUACAGUCCGACGAUCCAGAAUUUCAAAAAUAGCUUGUGUGGCAUGACUCAUGAUGUCCACUUCAGUCUGCCCUAUAACAAGGCCAGCAAAACAGAAUUUUGCAGCAAUCAGCUGUUCCUCAGACCACUGUGGAUCCAACAGAGGAUUGAGCAUCA
B17: chr11:77336104:77336105:-_ENSG00000074201_ENST00000525064|hu_mus|FALSE|FALSE (ssRNA)
RNA: GGGAGUUCUACAGUCCGACGAUCCUCACACAUUGCUGUGAACAUCGCCUCCAAUGCUGACUUAUCACUGGGCACAAAUCGAAAUUCAGAAAUGGGUUCAACAUCAUCAUUGUCUUCCUCAUCUUCAUCAGAGAGAGGUUCUUUCAACAGAGGAUUGAGCAUCA
B18: chrX:69798090:69798091:-_ENSMUSG00000031343_ENSMUST00000055966|mus_mus|mus_mus_mus_hu_False|18_48 (ssRNA)
RNA: GGGAGUUCUACAGUCCGACGAUCAAGUCCCCGGGUUCUUGUCGUCUUGAUUCCCCUUGACCAGUGGUUCCAGGGAGAAUAUUAAUCAGGAGAAGAAUCCCAAGGCUGGUCAUGUAAAAGUGCCACAUUUGUGUGAUUAUCAUCCAACAGAGGAUUGAGCAUCA
B19: chrX:153670519:153670520:+_ENSG00000203879_ENST00000447750|hu_hu|FALSE|FALSE (ssRNA)
RNA: GGGAGUUCUACAGUCCGACGAUCAGCCGGCUCCACCUCCUUUUCAGGGUCCGUGGUCUCCACAGUAGUGCUGGCAAUAGCUAUGUACUUGCCCUGGGCCGCCACGUUGUGUGCAUAGGAGAUCAUGCACACGUAGAUGUCUGACAACAGAGGAUUGAGCAUCA
B20: chr2:25961539:25961540:-_ENSG00000143970_ENST00000336112|hu_hu|motif|central (ssRNA)
RNA: GGGAGUUCUACAGUCCGACGAUCCACUCCUCACCCCCAUUAUAGCAAAUCACUUCACCAGAGAGUUAUUUAUGGCUCUCGGAGGUGGAGAAAGGCAAUAAUAAACAACAGAAUGUUAACUGUCAGGUCAUUAAUAUGUAUGACCAACAGAGGAUUGAGCAUCA
B21: chr11:10819154:10819155:-_ENSG00000110321_ENST00000525681|hu_hu|FALSE|FALSE (ssRNA)
RNA: GGGAGUUCUACAGUCCGACGAUCCUUAUGAUGUAAUUAUUGCAUGCUGCUAAUAUACUAUCUAAACAUUAAAGAUACUCCUAAAAUAUUUGAUGGUAGACUAUGAUUAAGACAUUACACUACAAAAAAACCUUAUGCAGAAGGCAACAGAGGAUUGAGCAUCA
B22: chr3:131208901:131208902:-_ENSG00000114686_ENST00000264995|hu_mus|FALSE|FALSE (ssRNA)
RNA: GGGAGUUCUACAGUCCGACGAUCCUGUCACAUGAAAGAUUUUAUGUAUCUGUUUUGGUGGCAGUCCAAGAUCUCGGUAAAAUUCCAAUCUAGAGUCAGGUUUAUAGAAGCGUGACACGGUUUUCCCGCCCACUGUCAGGGCUGCAACAGAGGAUUGAGCAUCA

Molecular target: T1, UNK ZnF1-3
Assay: nsRBNS (natural sequence RNA bind-n-seq); RBNS binding buffer (assumed for nsRBNS): 25 mM Tris pH 7.5, 150 mM KCl, 3 mM MgCl2, 0.01% Triton X-100, 500 ug/ml BSA, 20 U/ml SUPERase-In, 4 C; UNK is unkempt and MSI1 is Musashi-1; names of the RNAs are library labels; protein concentration not given here; high values mean tight binding

Compared with B1, B2 is lower in binding signal: 1.16 enrichment R for the first, 0.877 enrichment R for the second.

Going from B3 to B4, the binding signal rises from 0.789 enrichment R to 1.08 enrichment R.

Going from B5 to B6, the binding signal falls from 1.15 enrichment R to 0.63 enrichment R.

Compared with B7, B8 is higher in binding signal: 0.392 enrichment R for the first, 1.12 enrichment R for the second.

First: B9
Second: B10
The binding signal of the first is higher: 0.838 enrichment R for the first, 0.549 enrichment R for the second.

Compared with B11, B12 is higher in binding signal: 0.832 enrichment R for the first, 0.986 enrichment R for the second.

First: B13
Second: B14
The binding signal of the first is lower: 0.625 enrichment R for the first, 1.21 enrichment R for the second.

Compared with B15, B16 is higher in binding signal: 0.907 enrichment R for the first, 1.05 enrichment R for the second.

Compared with B17, B18 is lower in binding signal: 1.07 enrichment R for the first, 0.678 enrichment R for the second.

Going from B19 to B20, the binding signal rises from 1.11 enrichment R to 1.2 enrichment R.

Compared with B21, B22 is lower in binding signal: 1.02 enrichment R for the first, 0.9 enrichment R for the second.
